For 153 variants, enrichment ratio results are on record in a collection of fitness landscapes (doi:10.1126/science.1257360).

Some of the results follow.

To fix the notation:
B1: PhoQ; a variant is named by its letters at X, in order, P23837 (parent)
chain: MKKLLRLFFPLSLRVRFLLATAAVVLVLSLAYGMVALIGYSVSFDKTTFRLLRGESNLFYTLAKWENNKLHVELPENIDKQSPTMTLIYDENGQLLWAQRDVPWLMKMIQPDWLKSNGFHEIEADVNDTSLLLSGDHSIQQQLQEVREDDDDAEMTHSVAVNVYPATSRMPKLTIVVVDTIPVELKSSYMVWSWFIYVLSANLLLVIPLLWVAAWWSLRPIEALAKEVRELEEHNRELLNPATTRELTSLVRNLNRLLKSERERYDKYRTTLTDLTHSLKTPLXXLQXXLRSLRSEKMSVSDAEPVMLEQISRISQQIGYYLHRASMRGGTLLSRELHPVAPLLDNLTSALNKVYQRKGVNISLDISPEISFVGEQNDFVEVMGNVLDNACKYCLEFVEISARQTDEHLYIVVEDDGPGIPLSKREVIFDRGQRVDTLRPGQGVGLAVAREITEQYEGKIVAGESMLGGARMEVIFGRQHSAPKDE

The variants in the experiment derive from B1. Description: enrichment ratio after two sorts for PhoP signalling (ratio (wild type AVST 3.29)); higher = more functional. The conditions noted are these: with PhoP (E. coli).
Regarding IVVF, the enrichment ratio is no more than 0.25.
LMNI: the enrichment ratio is no more than 0.25.
To LGPM belongs no more than 0.25.
Turning to NHTS, the enrichment ratio is no more than 0.25.
Take YSQY: the enrichment ratio was no more than 0.25.
For HKKT, the enrichment ratio was no more than 0.25.
Consider HLMY, for which the enrichment ratio is no more than 0.25.
As to ISKM, the enrichment ratio was no more than 0.25.
On to IHLP, for which the enrichment ratio is no more than 0.25.
Turning to PQCF, the enrichment ratio was no more than 0.25.
As for SACM, the enrichment ratio was found to be 9.07.
Turning to VWTR, the enrichment ratio was no more than 0.25.
The result for MCAH reads 2.04; that for TDPP, no more than 0.25.
In the case of DKWR, the enrichment ratio was no more than 0.25.
To CKIS belongs no more than 0.25.
The result for NYSV reads no more than 0.25; that for IQDP, no more than 0.25.
As for RTNP, the enrichment ratio is no more than 0.25.
Consider IGCP, for which the enrichment ratio is no more than 0.25.
For PNWP, the enrichment ratio is no more than 0.25.
Regarding SKVW, the enrichment ratio is no more than 0.25.
For the variant DIKN, the enrichment ratio was no more than 0.25.
In the case of IFCM, the enrichment ratio is no more than 0.25.
For INAE, the enrichment ratio was no more than 0.25.
With LASK, the enrichment ratio is no more than 0.25.
In the case of INPN, the enrichment ratio was no more than 0.25.
The result for ILVH reads no more than 0.25.
To IHLM belongs no more than 0.25; to QNNV, no more than 0.25.
In the case of KCNR, the enrichment ratio is no more than 0.25.
Turning to IGDM, the enrichment ratio was no more than 0.25.
The result for QFSF reads no more than 0.25; that for SPMF, no more than 0.25.
On to QDWS, for which the enrichment ratio is no more than 0.25.
To MERI belongs no more than 0.25; to YRWK, no more than 0.25; to AGQH, no more than 0.25.
The result for TVAQ reads 4.72; that for RMRF, no more than 0.25.
QHVW: the enrichment ratio was no more than 0.25.
To INDM belongs no more than 0.25; to PWMI, no more than 0.25; to ANLD, no more than 0.25.
KMMR: the enrichment ratio is no more than 0.25.
VDQS: the enrichment ratio was no more than 0.25.
As to IRHI, the enrichment ratio is no more than 0.25.
Take QMTM: the enrichment ratio was no more than 0.25.
Regarding FLYN, the enrichment ratio is no more than 0.25.
Regarding WKHL, the enrichment ratio was no more than 0.25.
In the case of KFKH, the enrichment ratio was no more than 0.25.
Take ESGS: the enrichment ratio was no more than 0.25.
For SDIH, the enrichment ratio came to 2.15.
Consider GPCM, for which the enrichment ratio was no more than 0.25.
As for PEQH, the enrichment ratio is no more than 0.25.
Regarding IEPQ, the enrichment ratio was no more than 0.25.
Take KRNN: the enrichment ratio is no more than 0.25.
As for ETCY, the enrichment ratio was no more than 0.25.
As for WNQR, the enrichment ratio was no more than 0.25.
With RPFT, the enrichment ratio was no more than 0.25.
In the case of YYWE, the enrichment ratio is no more than 0.25.
Turning to IGPG, the enrichment ratio was no more than 0.25.
On to KYDN, for which the enrichment ratio was no more than 0.25.
The result for MQCN reads 6.8; that for DSWS, no more than 0.25.
For NYDW, the enrichment ratio is no more than 0.25.
To EHYT belongs no more than 0.25; to FPRK, no more than 0.25.
To WQYE belongs no more than 0.25; to NKFH, no more than 0.25; to YWCY, no more than 0.25.
To TTQT belongs 3.63; to YQTG, no more than 0.25.
As for TQNC, the enrichment ratio is 4.57.
Turning to RKTR, the enrichment ratio is no more than 0.25.
As for TLIL, the enrichment ratio is no more than 0.25.
For TYGM, the enrichment ratio is no more than 0.25.
Turning to PGAQ, the enrichment ratio is no more than 0.25.
Regarding YIAT, the enrichment ratio was found to be 0.272.
FISM: the enrichment ratio is no more than 0.25.
Regarding KTQT, the enrichment ratio is no more than 0.25.
As to CSFD, the enrichment ratio was no more than 0.25.
HGRE: the enrichment ratio was no more than 0.25.
For LVVC, the enrichment ratio is no more than 0.25.
On to ELAK, for which the enrichment ratio is no more than 0.25.
For NELD, the enrichment ratio is no more than 0.25.
With KGEM, the enrichment ratio was no more than 0.25.
Take ELKD: the enrichment ratio was no more than 0.25.
As for RTEN, the enrichment ratio is no more than 0.25.
For ASQN, the enrichment ratio was no more than 0.25.
To WRPE belongs no more than 0.25; to YVRG, no more than 0.25.
For FQRD, the enrichment ratio is no more than 0.25.
Consider ARYL, for which the enrichment ratio is no more than 0.25.
With ISSC, the enrichment ratio is no more than 0.25.
On to HERF, for which the enrichment ratio is no more than 0.25.
On to AAMT, for which the enrichment ratio is no more than 0.25.
Take TMSR: the enrichment ratio was no more than 0.25.
Turning to AVKW, the enrichment ratio was no more than 0.25.
Consider FSFI, for which the enrichment ratio was found to be 0.694.
For the variant RWYS, the enrichment ratio was no more than 0.25.
The result for RHWT reads no more than 0.25.
As to SVET, the enrichment ratio is no more than 0.25.
ETTC: the enrichment ratio was no more than 0.25.
Take RCYG: the enrichment ratio is no more than 0.25.
In the case of TMAR, the enrichment ratio was determined as 4.26.
On to KNNN, for which the enrichment ratio is no more than 0.25.
As to HVPE, the enrichment ratio is no more than 0.25.
For PELK, the enrichment ratio was no more than 0.25.
To PWMD belongs no more than 0.25; to GSHC, no more than 0.25.
For SWYW, the enrichment ratio was no more than 0.25.
FHRF: the enrichment ratio was no more than 0.25.
With YEGL, the enrichment ratio was no more than 0.25.
To NDTY belongs no more than 0.25.
QMYQ: the enrichment ratio was found to be 7.96.
With LRQF, the enrichment ratio was no more than 0.25.
With GSQS, the enrichment ratio is no more than 0.25.
For DKYW, the enrichment ratio was no more than 0.25.
To YQKY belongs no more than 0.25; to PNMY, no more than 0.25; to GIIF, no more than 0.25.
With WLTC, the enrichment ratio is no more than 0.25.
Turning to DCQA, the enrichment ratio was no more than 0.25.
The result for SMND reads no more than 0.25.
As to MASI, the enrichment ratio is 6.62.
QYEH: the enrichment ratio is no more than 0.25.
Consider EDMQ, for which the enrichment ratio was no more than 0.25.
For VAFD, the enrichment ratio was no more than 0.25.
As to GDQR, the enrichment ratio is no more than 0.25.
Turning to YRWL, the enrichment ratio was no more than 0.25.
The result for SQCW reads no more than 0.25; that for VLFS, no more than 0.25; that for GMVG, no more than 0.25.
To PYDL belongs no more than 0.25.
Consider IHWT, for which the enrichment ratio is no more than 0.25.
As for IWIK, the enrichment ratio was no more than 0.25.
Consider FDCN, for which the enrichment ratio is no more than 0.25.
On to TLIS, for which the enrichment ratio was no more than 0.25.
Consider ECFP, for which the enrichment ratio is no more than 0.25.
Regarding KLGY, the enrichment ratio is no more than 0.25.
In the case of IFIE, the enrichment ratio was no more than 0.25.
Consider HIFS, for which the enrichment ratio is no more than 0.25.
Take LAEH: the enrichment ratio is no more than 0.25.
With MTWL, the enrichment ratio was 10.
In the case of RYCW, the enrichment ratio is no more than 0.25.
For KQFG, the enrichment ratio is no more than 0.25.
For the variant TQLQ, the enrichment ratio was determined as 5.05.
Regarding KKYR, the enrichment ratio was no more than 0.25.
For TCKV, the enrichment ratio was no more than 0.25.
Take DTTM: the enrichment ratio is no more than 0.25.
As for ANYF, the enrichment ratio is no more than 0.25.
In the case of MWAV, the enrichment ratio was no more than 0.25.
